Laboratory results reported in PubChem BioAssay AID504333 (National Center for Advancing Translational Sciences (NCATS), 2011).
Out of some 360,000 compounds screened, about 16,000 (4.4%) were called active. Inconclusive results, whose numbers are uncertain, are shown with a selection of clear calls. The call rests on the fitted dose curve; in most records, active means well fitted inhibition curve with a large enough effect; inconclusive means small, poorly fitted or top-dose-only effect; inactive means no such curve, though single readings can be large or run the other way. Where the call is inconclusive, the potency comes from a doubtful curve fit.

Biological target: Bromodomain adjacent to zinc finger domain protein 2B (Homo sapiens) (UniProt Q9UIF8)
Test: qHTS Assay for Inhibitors of BAZ2B; further: nearly all actives have a fitted effect of over 60% in size
Settings: AlphaScreen BAZ2B-H3K14Ac peptide displacement; series mostly up to 114 µM
How it was run: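 AlphaScreen displacement: compounds (up to 110uM) incubated 30 min at room temperature with a preformed 50 nM BAZ2B/50 nM biotinylated H3K14Ac peptide complex in PBS pH 7.4 with Tween-20. Donor and acceptor beads at 10 ug/mL final added, 20 min light-protected before reading.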
Potency means the concentration at half of the fitted maximal effect; tags describe the fitted curve by direction and shape.

Chain of UniProt Q9UIF8 (Q9UIF8 whole entry, looked up, the tested form may be a part): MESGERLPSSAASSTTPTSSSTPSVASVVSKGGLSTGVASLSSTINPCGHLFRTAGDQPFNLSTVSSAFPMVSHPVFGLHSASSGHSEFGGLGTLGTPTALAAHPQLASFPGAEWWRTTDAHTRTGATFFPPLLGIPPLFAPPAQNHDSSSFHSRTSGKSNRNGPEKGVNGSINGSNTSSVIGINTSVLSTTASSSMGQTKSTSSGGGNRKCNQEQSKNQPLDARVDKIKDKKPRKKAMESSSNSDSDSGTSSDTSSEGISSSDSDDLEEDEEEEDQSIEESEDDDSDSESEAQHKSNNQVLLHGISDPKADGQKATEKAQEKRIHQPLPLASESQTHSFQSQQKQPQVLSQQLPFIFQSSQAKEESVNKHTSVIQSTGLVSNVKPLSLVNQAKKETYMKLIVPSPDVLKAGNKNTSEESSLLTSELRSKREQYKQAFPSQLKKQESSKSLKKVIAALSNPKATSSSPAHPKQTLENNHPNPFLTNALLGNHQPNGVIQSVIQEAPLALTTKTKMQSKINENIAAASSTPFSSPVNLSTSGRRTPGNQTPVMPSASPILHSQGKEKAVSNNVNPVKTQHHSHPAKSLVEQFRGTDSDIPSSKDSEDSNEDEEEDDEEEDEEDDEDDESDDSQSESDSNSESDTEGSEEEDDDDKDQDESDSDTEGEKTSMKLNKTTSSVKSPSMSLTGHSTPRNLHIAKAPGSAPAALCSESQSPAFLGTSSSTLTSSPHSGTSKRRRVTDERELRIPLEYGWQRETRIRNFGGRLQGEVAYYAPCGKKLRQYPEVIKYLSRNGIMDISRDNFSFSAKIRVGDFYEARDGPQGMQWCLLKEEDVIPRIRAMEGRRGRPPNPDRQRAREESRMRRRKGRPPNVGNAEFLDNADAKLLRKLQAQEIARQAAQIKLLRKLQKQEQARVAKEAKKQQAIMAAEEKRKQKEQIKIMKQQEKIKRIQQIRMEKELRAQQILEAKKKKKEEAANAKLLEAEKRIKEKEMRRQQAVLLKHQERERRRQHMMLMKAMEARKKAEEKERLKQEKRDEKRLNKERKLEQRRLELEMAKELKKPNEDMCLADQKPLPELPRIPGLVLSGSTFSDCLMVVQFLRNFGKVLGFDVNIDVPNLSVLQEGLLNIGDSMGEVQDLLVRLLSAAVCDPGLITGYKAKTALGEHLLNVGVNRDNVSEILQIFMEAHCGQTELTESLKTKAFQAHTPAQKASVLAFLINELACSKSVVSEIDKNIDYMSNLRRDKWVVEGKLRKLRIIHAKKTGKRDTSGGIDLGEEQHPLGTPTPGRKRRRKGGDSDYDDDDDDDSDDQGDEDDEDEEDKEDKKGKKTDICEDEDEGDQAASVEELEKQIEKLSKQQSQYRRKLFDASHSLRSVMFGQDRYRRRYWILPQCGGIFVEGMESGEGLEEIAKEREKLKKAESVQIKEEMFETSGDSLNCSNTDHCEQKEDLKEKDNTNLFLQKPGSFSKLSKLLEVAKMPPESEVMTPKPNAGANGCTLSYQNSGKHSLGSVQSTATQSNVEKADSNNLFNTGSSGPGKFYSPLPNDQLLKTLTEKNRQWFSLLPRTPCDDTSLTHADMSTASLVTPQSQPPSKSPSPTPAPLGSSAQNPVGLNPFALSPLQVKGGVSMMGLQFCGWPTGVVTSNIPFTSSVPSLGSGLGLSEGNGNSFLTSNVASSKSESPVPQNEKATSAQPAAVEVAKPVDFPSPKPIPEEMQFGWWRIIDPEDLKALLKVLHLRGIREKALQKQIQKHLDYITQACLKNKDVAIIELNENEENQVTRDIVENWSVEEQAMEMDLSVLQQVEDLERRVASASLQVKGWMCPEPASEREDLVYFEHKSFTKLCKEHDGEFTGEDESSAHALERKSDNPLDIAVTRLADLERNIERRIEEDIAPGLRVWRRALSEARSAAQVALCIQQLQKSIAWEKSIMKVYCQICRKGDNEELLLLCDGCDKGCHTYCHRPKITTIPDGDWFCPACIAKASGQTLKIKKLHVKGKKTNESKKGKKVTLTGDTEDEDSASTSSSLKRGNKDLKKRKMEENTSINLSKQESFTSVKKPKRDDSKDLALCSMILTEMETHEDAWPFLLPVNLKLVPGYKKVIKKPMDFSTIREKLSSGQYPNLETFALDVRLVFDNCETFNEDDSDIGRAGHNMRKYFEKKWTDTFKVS

Row | SMILES | Potency
1 | O=S(=O)(Nc1cc(Cl)ccc1-n1cncn1)c1cc(Br)ccc1Br | inconclusive: 89.1 µM [inhibitor, single point]
2 | C=CCn1c(O)c(C2=c3ccccc3=NC2=O)c2ccccc21 | active: 6.31 µM
3 | COc1cccc(/C=N/NC(=O)c2[nH]nc3c2CCc2ccccc2-3)c1O | inconclusive: 89.1 µM [inhibitor, single point]
4 | CCCC(=O)Nc1nnc(S(=O)(=O)N(C)c2ccccc2)s1 | inconclusive: 2.24 µM [inhibitor, full curve, poor fit]
5 | COc1ccc(S(=O)(=O)N(CCc2ccccc2)CC(=O)NCc2ccc(C)cc2)cc1 | inactive
6 | Cc1cccc(Cc2c(C)nc3c(C(=O)N4CCN(Cc5ccc6c(c5)OCO6)CC4)cnn3c2C)c1 | inconclusive: 63.1 µM [inhibitor, partial curve, poor fit]
7 | CC(O)Cc1cn(CC(=O)N2CCN(C(=O)OC(C)(C)C)CC2)nn1 (centres undefined) | inconclusive: 89.1 µM [inhibitor, single point]
8 | S=c1nc(-c2ccc(Br)cc2)oc2c1CCCC2 | inconclusive: 5.01 µM [inhibitor, full curve]
9 | COc1ccc(C(=O)NNC(=O)CSc2nc3c([nH]2)c(=O)n(C)c(=O)n3C)cc1 | inactive
10 | O=C(COC(=O)c1ccccc1Nc1ccccc1)NCc1ccco1 | inconclusive: 6.31 µM [inhibitor, single point]
11 | Cc1cccc2cc(/C=N/Nc3ccc(C(=O)O)cc3)c(Cl)nc12 | active: 50.1 µM
12 | CCN(CC)CCn1c(NCc2ccccn2)nc2ccccc21 | inconclusive: 100 µM [inhibitor, single point]
13 | Nc1cc(=O)[nH]c(SCC(=O)N2N=C(c3ccc(Cl)cc3)CC2c2ccco2)n1 (centres undefined) | inconclusive: 56.2 µM [inhibitor, partial curve]
14 | O=c1[nH]c2ccc(NS(=O)(=O)c3ccc(F)cc3)cc2s1 | inactive
15 | O=C(NC(=S)NCC1CCCO1)c1ccccc1Br (centres undefined) | inactive
16 | CCCc1[nH]nc2c1C(c1ccc(OCCN3CCOCC3)c(OC)c1)C(C#N)=C(N)O2 (centres undefined) | inactive
17 | Cn1cnc([N+](=O)[O-])c1SCC(=O)NN | inconclusive: 56.2 µM [inhibitor, partial curve]
18 | CCCC(=O)Nc1ccc(NC(=S)NC(=O)c2cccs2)cc1 | inconclusive: 79.4 µM [inhibitor, partial curve]
19 | COc1ccc2oc(=O)cc(CN3CCN(C(=O)c4ccccc4Br)CC3)c2c1 | inactive
20 | Cc1ccc(OCCNc2cc(N3CCN(CCO)CC3)ccc2[N+](=O)[O-])cc1C | active: 31.6 µM
21 | Cc1nc(-n2nc(C)c(CCC(C)C)c2C)sc1C(=O)Nc1cccc(Cl)c1C | inconclusive: 89.1 µM [inhibitor, single point]
22 | CSc1nnc(N2C(=O)C(O)=C(C(=O)c3ccco3)C2c2ccc(F)cc2)s1 (centres undefined) | inconclusive: 63.1 µM [inhibitor, partial curve, poor fit]

Row | SMILES | Potency
23 | CCN1CCn2c3c(c4cc(Cl)ccc42)CCCC31 (centres undefined) | active: 35.5 µM
24 | C=CCn1c(C)cc(C(=O)CSc2nc3ccccc3c(=O)[nH]2)c1C | inconclusive: 31.6 µM [inhibitor, full curve, poor fit]
25 | COCCn1c(=S)[nH]c2cc(C(=O)NC(C)C)ccc2c1=O | inconclusive: 100 µM [inhibitor, single point]
26 | CCN(CC)C(=O)COC(=O)c1cc(-c2ccc(OC)cc2)nc2ccccc12 | inactive
27 | CCC(=O)Nc1cccc(NC(=S)NC(=O)c2ccc(C)cc2)c1 | inconclusive: 79.4 µM [inhibitor, single point]
28 | O=C(NNS(=O)(=O)c1ccc(F)cc1)c1ccc(O)cc1 | inconclusive: 89.1 µM [inhibitor, single point]
29 | Cc1cc(C)n2nc(SCC(=O)N(C(C)C)C(C)C)nc2n1 | inconclusive: 89.1 µM [inhibitor, single point]
30 | Cc1ccc2c(c1)C(c1ccncc1)=NNC(c1ccc(F)cc1)=N2 | inconclusive: 35.5 µM [inhibitor, full curve, poor fit]
31 | CCOc1ccc(Nc2cc(C)c(C#N)c3nc4ccccc4n23)cc1 | inactive
32 | O=C(NCC1CCN(Cc2cccc(Cl)c2)CC1)C1CCCN(c2ncnc3c2nc2n3CCCCC2)C1 (centres undefined) | inconclusive: 79.4 µM [inhibitor, single point]
33 | Cc1cc(C)cc(NC(=O)CN2CCN(CCN=CC3=C(O)CC(c4ccc(Cl)cc4)CC3=O)CC2)c1 (centres undefined) | inactive
34 | Cc1cccc(NCc2ccc(O)c3ncccc23)c1C | active: 56.2 µM
35 | Cn1c(=O)n(C)c2cc(NS(=O)(=O)c3ccccc3[N+](=O)[O-])ccc21 | inconclusive: 89.1 µM [inhibitor, single point]
36 | CCC(C(=O)NCc1cccc(C)c1)n1nc(C)c2c(C)n(-c3ccccc3)nc2c1=O (centres undefined) | inactive
37 | O=C(CSc1nc2ccccc2o1)N/N=C/c1ccc(O)c(O)c1 | active: 44.7 µM
38 | Cc1cc(C(=O)C(=O)O)c(C)n1-c1ccc(Cl)cc1 | inconclusive: 79.4 µM [inhibitor, single point]
39 | c1ccc2oc(-c3csc(NCC4CCCO4)n3)cc2c1 (centres undefined) | inconclusive: 44.7 µM [inhibitor, partial curve]
40 | O=C(COc1ccccc1Cl)N1CCN(c2ccc([N+](=O)[O-])c(N3CCOCC3)c2)CC1 | inconclusive: 39.8 µM [inhibitor, full curve, poor fit]
41 | COc1ccc(-c2csc(NC(=O)c3ccc(OCC(=O)N4CCOCC4)c(OC)c3)n2)cc1 | inconclusive: 56.2 µM [inhibitor, single point]
42 | COc1ccccc1NC(=O)c1ccc(N2CC3CC(C2)c2cccc(=O)n2C3)c(NC(=O)c2cccnc2)c1 (centres undefined) | inconclusive: 89.1 µM [inhibitor, single point]
43 | Cc1cc(=O)oc2cc(OCC(O)CN3CCN(c4ccccc4)CC3)ccc12 (centres undefined) | inconclusive: 89.1 µM [inhibitor, single point]
44 | O=c1c2c(C(F)(F)F)cc(C(F)(F)F)nc2[nH]n1-c1ccccc1 | inconclusive: 89.1 µM [inhibitor, single point]
